The campaign covered roughly 390,000 compounds. About 17,000 (4.4%) were called active. The inconclusive results got no clear call from the source; some entries with a clear call stand among them for comparison. Calls follow the shape of the dose curve; as a rule, active = well fitted inhibition curve with a large enough effect; inconclusive = small, poorly fitted or top-dose-only effect; inactive = no such curve, though single readings can be large or run the other way. Where the call is inconclusive, the potency comes from a doubtful curve fit.
These molecules were tested against Lysine-specific demethylase 4A (Homo sapiens) (UniProt O75164) (assay: qHTS Assay for Inhibitors of JMJD2A-Tudor Domain). Settings: AlphaScreen JMJD2A-Tudor / H3K4me3 peptide binding; activity change, negative = inhibition: at 114 µM (top of the series).
UniProt O75164, sequence (O75164 whole entry, looked up, the tested form may be a part): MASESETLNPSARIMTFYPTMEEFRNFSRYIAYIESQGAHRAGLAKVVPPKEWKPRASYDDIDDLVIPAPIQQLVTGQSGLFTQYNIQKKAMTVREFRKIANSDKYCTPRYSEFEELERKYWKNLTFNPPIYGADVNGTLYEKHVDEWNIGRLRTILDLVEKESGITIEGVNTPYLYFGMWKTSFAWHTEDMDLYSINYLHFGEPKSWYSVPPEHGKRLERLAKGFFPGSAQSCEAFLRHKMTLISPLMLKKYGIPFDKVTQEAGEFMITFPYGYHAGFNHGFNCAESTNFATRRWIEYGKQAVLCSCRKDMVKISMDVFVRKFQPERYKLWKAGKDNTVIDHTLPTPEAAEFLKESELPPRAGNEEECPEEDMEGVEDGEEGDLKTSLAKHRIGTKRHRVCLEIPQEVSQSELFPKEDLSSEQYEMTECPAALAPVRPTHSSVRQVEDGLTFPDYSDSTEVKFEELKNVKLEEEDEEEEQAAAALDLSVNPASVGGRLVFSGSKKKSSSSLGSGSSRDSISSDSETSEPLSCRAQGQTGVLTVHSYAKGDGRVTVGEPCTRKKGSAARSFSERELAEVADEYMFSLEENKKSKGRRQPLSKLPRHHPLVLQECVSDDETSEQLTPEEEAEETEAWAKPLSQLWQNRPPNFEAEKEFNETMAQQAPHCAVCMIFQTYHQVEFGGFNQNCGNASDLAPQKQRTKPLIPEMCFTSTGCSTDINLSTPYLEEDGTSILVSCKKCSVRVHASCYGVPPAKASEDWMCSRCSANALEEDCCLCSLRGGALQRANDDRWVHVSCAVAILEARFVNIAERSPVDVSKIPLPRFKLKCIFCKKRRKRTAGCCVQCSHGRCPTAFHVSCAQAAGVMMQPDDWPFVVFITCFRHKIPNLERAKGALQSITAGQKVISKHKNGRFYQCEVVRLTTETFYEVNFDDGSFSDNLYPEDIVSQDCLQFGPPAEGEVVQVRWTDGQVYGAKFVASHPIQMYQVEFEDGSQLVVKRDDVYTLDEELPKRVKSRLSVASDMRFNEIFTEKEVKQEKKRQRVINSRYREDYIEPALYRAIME
% is scaled to controls: 0 for no effect and ±100 for the full control effect; potency is read from the fitted curve at half-maximal effect; tags tell the direction and shape of the fitted curve.
Also: nearly all actives have a fitted effect of over 50% in size.

Potency, active:
Cc1occc1C(=O)NCc1cccc(CNC(=O)c2ccoc2C)c1 56.2 µM
CN(C)c1ccc(Nc2ncnc3ccc(Br)cc23)cc1 44.7 µM
O=C(Nc1nc(-c2ccccn2)cs1)c1ccco1 56.2 µM
CC(C)n1c(-c2ccc(C(C)(C)C)cc2)n[nH]c1=S 28.2 µM
CCc1nnc(NC(=O)CN2CCN(c3ccccc3OC)CC2)s1 56.2 µM
Cc1cccc(-n2c(Cn3nc(C)c([N+](=O)[O-])c3C)n[nH]c2=S)c1 22.4 µM
CCCn1c(=O)c2ccccc2n2c(SCCOc3ccc(C)cc3)nnc12 28.2 µM
COCCNC(=O)CCC(=O)NNc1nc2ccccc2c2nc(C)nn12 79.4 µM

Potency, inactive:
COc1ccc(C(=O)Nc2nncs2)cc1S(=O)(=O)N1CC(c2ccccc2)CC1=O (stereo not drawn)
CC(=O)CC(=O)Nc1ccc(Nc2ccccc2)cc1
CCOC(=O)c1sc(=S)n(-c2ccccc2Cl)c1SC
COc1ccc(C2(CNC(=O)c3cccs3)CCOCC2)cc1
COc1ccc(OC)c(NC(=O)c2oc(=O)c3ccccc3c2-c2ccccc2)c1
COCCCNC(=O)c1ccc([N+](=O)[O-])c(Cl)c1
CC(=O)c1c(C)[nH]c(C(=O)OCc2ccccc2)c1C
COC(=O)c1cn[nH]c1NC(=S)Nc1ccc(Cl)c(Cl)c1
Cc1ccc(NC2CCCN(C(=O)c3cccs3)C2)cc1C (stereo not drawn)
Clc1ccc(-c2nnn3c2nc(NC2CCCCC2)c2ccccc23)cc1
COCCn1c(-c2ccccc2)nc2ccccc21
CCOC(=O)N1CCN(C(=S)Nc2ccc3nc(N4CCN(CC)CC4)cc(C)c3c2)CC1
Cc1ccc(NC(=O)CCCc2nc(-c3ccco3)no2)cc1Cl
N#CC1=C(N)OC2=C(C(=O)CCC2)C1c1ccccc1 (stereo not drawn)

Potency, inconclusive:
CCc1ccc(OCCSc2nc3ccccc3n2CC(=O)N2CCCCC2)cc1 50.1 µM [inhibitor, partial curve]
O=C(c1ccc(F)cc1)N1CCc2c([nH]c3ccccc23)C1c1ccc(Cl)cc1 (stereo not drawn) 14.1 µM [inhibitor, full curve]
COc1ccc(-n2c(C)c([N+](=O)[O-])c3ccc(O)c(CN4CCCCC4)c32)cc1 28.2 µM [inhibitor, single point]
CCCc1nc(SCC(=O)c2ccc3c(c2)NC(=O)CO3)[nH]c(=O)c1CC 17.8 µM [inhibitor, single point]
Oc1c(Br)cc(/C=N/Nc2ccc(Cl)nn2)cc1Br 56.2 µM [inhibitor, partial curve]
Cc1ccc(NNC(N)=S)cc1Cl 20 µM [inhibitor, full curve]
COc1ccc(CC(=O)N2CCc3cc(OC)c(OC)cc3C2COc2ccc(F)cc2)cc1 (stereo not drawn) 39.8 µM [inhibitor, partial curve]
O=[N+]([O-])c1ccc(C2CCCC/C2=N/OCc2ccc(F)cc2)c([N+](=O)[O-])c1 (stereo not drawn) 20 µM [inhibitor, partial curve]
Cc1ccccc1C1c2[nH]c3ccccc3c2C[C@H]2C(=O)N(c3ccccc3C(=O)NCCCN3CCOCC3)C(=O)N12 (stereo partly drawn) 89.1 µM [inhibitor, partial curve]
CC(C)c1ccccc1OCC(=O)Nc1cc(S(=O)(=O)N2CCOCC2)ccc1N1CCCC1 63.1 µM [inhibitor, partial curve]
O=C(CCN1c2ccccc2Sc2ccccc21)OCC(=O)N1CCN(C(=O)c2ccco2)CC1 50.1 µM [inhibitor, partial curve]
COc1cc(/C=C2\SC(=S)N(NC(=O)c3cccc(O)c3)C2=O)ccc1O 39.8 µM [inhibitor, full curve]
O=C(NC(CSCc1ccccc1)C(=O)N/N=C/c1ccc(O)cc1O)c1ccc([N+](=O)[O-])cc1 (stereo not drawn) 50.1 µM [inhibitor, partial curve]
COc1ccc(-c2nc3ccccn3c2NCc2ccc3c(c2)OCO3)cc1 56.2 µM [inhibitor, partial curve]
O=S(=O)(c1cccc2nsnc12)N1CCc2ccccc21 50.1 µM [inhibitor, partial curve]
COC(=O)c1ccc(Nc2nc(N3CCOCC3)nc(N3CCOCC3)n2)cc1 56.2 µM [inhibitor, partial curve, poor fit]
O=S(=O)(N1CCCCC1)N1CCNCC1 89.1 µM [inhibitor, partial curve]
O=C(N/N=C/c1cc2c(cc1[N+](=O)[O-])OCO2)c1ccccn1 89.1 µM [inhibitor, single point]
CCOC(=O)C1=C2NC(=O)c3ccccc3N2C(=O)C1 22.4 µM [inhibitor, full curve, poor fit]
O=C1CC(c2ccccc2)c2cc(O)ccc2O1 (stereo not drawn) 79.4 µM [inhibitor, single point]
O=C(Oc1cc(-c2ccccc2)no1)c1cccc(C(F)(F)F)c1 63.1 µM [inhibitor, partial curve, poor fit]
c1ccc2c(c1)CCN(C1=Nc3cccc4cccc1c34)C2 63.1 µM [inhibitor, partial curve]
COc1ccccc1/C=C1\SC(=S)N(NS(=O)(=O)c2ccc(C)cc2)C1=O 10 µM [inhibitor, partial curve]
O=C(COC(=O)Cc1c(Cl)cccc1Cl)NCc1ccco1 56.2 µM [inhibitor, partial curve]

Activity change, negative = inhibition, inconclusive:
COC(=O)C1CCN(C(=O)COC(=O)c2ccc3[nH]c4c(c3c2)CCCC4)CC1 -46.2% [inhibitor]
O=C(COC(=O)c1cnccn1)Nc1ncc(Cl)cc1Cl -37.2% [inhibitor]

— PubChem BioAssay AID504339 (National Center for Advancing Translational Sciences (NCATS), 2011)
